# Assay results as given in PubChem BioAssay AID1508623 (National Center for Advancing Translational Sciences (NCATS), 2021).
# In all, about 48,000 compounds went through this assay and about 450 (0.94%) were called active. About 19% were inconclusive and are not listed. Calls follow the shape of the dose curve; as a rule, active = well fitted inhibition curve with a large enough effect; inconclusive = small, poorly fitted or top-dose-only effect; inactive = no such curve, though single readings can be large or run the other way. This is one part of the list.
# Test: Primary qHTS for Identification of Small Molecule Inhibitors of Huntingtin Promoter Activity; also: nearly all actives have a fitted effect of over 50% in size
# Settings: HEK293 HTT promoter firefly luciferase reporter (activity 0% = vehicle and -100% = no light), 24 h; series mostly up to 57.5 µM; activity change, negative = inhibition: at the top concentration
# In short: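 HEK293 Fluc reporter, 2,500 cells/well, 24 h pre-culture; cpds up to 57.5 uM final, 24 h 37 degrees C; Dual-Glo, 10 min RT; normalized vehicle = 0%, zero RLU = -100%.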
row,SMILES,"activity change, negative = inhibition"
1,CCOC(=O)c1ccc(Nc2nc3ccc(C(=O)c4ccccc4)cc3n3c(C)nnc23)cc1,inactive: -12.3%
2,CCCCCOc1ccc(Cn2c(=O)oc3ccccc32)cc1,inactive: 5.99%
3,COc1cc(Cl)c(NC(=O)CCS(=O)(=O)c2ccc3c(c2)NC(=O)CO3)c(OC)c1,inactive: 0%
4,CCCOc1ccc(C(=O)OCCN(CC)CC)cc1N,inactive
5,CC(C)(C)OC(=O)N1CCC(c2c(C(=O)NC3CCN(Cc4ccccc4)CC3)cnn2-c2ccc(F)cc2F)CC1,inactive: -8.32%
6,Cc1ccc(NC(=O)C2CCCN(S(=O)(=O)c3ccc4c(c3)oc(=O)n4C)C2)cc1Cl (stereo unspecified),inactive: -3.25%
7,CCOc1ccc(NC(=O)C(=O)c2cc(C)n(-c3cc(C)cc(C)c3)c2C)cc1,inactive: -12.8%
8,COc1ccc(-c2cc(C(=O)NCCc3ccccc3)c3c(-c4ccccc4)[nH]nc3n2)cc1OC,inactive: -3.19%
9,Cc1ccc(/C=C/c2onc(C)c2S(=O)(=O)N2CCC(C(=O)Nc3cc(C)ccc3C)CC2)cc1,inactive: -6.65%
10,COc1ccc(S(=O)(=O)c2cn(C)c3ccc(C)cc3c2=O)cc1,inactive: -15.7%
11,O=C(Nc1ccc(F)cc1C(F)(F)F)C1CCN(c2ncccn2)CC1,inactive: -9.58%
12,Cc1cccc(NC(=O)c2c(C)cc(C)nc2SCC(=O)c2ccccc2)c1,inactive: -19.9%
13,Cc1cc(C)c2oc(C(=O)Nc3ccc(S(=O)(=O)N4CCCCCC4)cc3)cc(=O)c2c1,inactive: 0%
14,CCOc1ccc(OCC)c(Nc2ccc3cc(S(=O)(=O)N4CCCC4)ccc3n2)c1,inactive: -5.81%
15,CCC1CN(C(=O)N2CCC(C(=O)NCc3cccc(OC)c3OC)CC2)c2cc(C)ccc2O1 (stereo unspecified),inactive: -18.5%
16,COc1ccccc1NC(=O)c1sc2nc(C)c(C(=O)Nc3ccc(C)cc3C)c(-c3ccco3)c2c1N,inactive: -4.19%
17,COc1cccc(-c2noc(C3CC(=O)N(c4ccc(F)cc4)C3)n2)c1OC (stereo unspecified),inactive: 3.67%
18,COc1ccccc1CNC(=O)c1cc2sccc2n1Cc1ccc(Cl)cc1,inactive: -16.8%
19,CCc1ccc(NC(=O)CCn2c(=O)c3cccn3c3ccccc32)cc1,inactive: -26%
20,Cc1ccccc1NC(=O)CSc1nc2ccc(NC(=O)c3cccs3)cc2s1,inactive: -6.07%
21,Cc1ccc(NC(=O)c2ccc3[nH]c(C)cc(=O)c3c2)cc1,inactive: 1.37%
22,CSc1cccc(NC(=O)c2cccc(N3CCCS3(=O)=O)c2)c1,inactive: 47%
23,Cc1nc(-c2ccc(S(=O)(=O)Nc3ccc(C#N)cc3)cc2)co1,inactive: -31.3%

row,SMILES,"activity change, negative = inhibition"
1,COc1cc(C(=O)OCc2cc(=O)n3nc(C4CCCCC4)sc3n2)cc(OC)c1OC,inactive: -19.3%
2,COc1cc2cc(CNc3ccccc3)c(=O)n(CC(=O)Nc3ccccc3)c2cc1OC,inactive: -20%
3,CCc1cccc(NC(=O)c2cn3c4c(ccc(Cl)c4c2=O)OC(C)C3)c1 (stereo unspecified),inactive: -19.6%
4,CCn1nnc2cc(C(=O)Nc3ccc(Cl)cc3C)ccc21,inactive: 13.9%
5,CCc1cccc(-n2c(=O)c3cccnc3n2CC(=O)NCc2ccccc2)c1,inactive: -26.2%
6,O=C(NCCC1=CCCCC1)c1ccc2c(c1)N(Cc1ccccc1F)C(=O)c1ccccc1S2=O (stereo unspecified),inactive: -14.9%
7,COc1cccc(NC(=O)Cn2c(=O)cc(C)c3c(C)nn(-c4cccc(F)c4)c32)c1,inactive: 33.6%
8,CC1CCCCN1C(=O)Cn1c(=O)n(-c2ccc(Cl)cc2)c(=O)c2c3c(sc21)CCC3 (stereo unspecified),inactive: -8.73%
9,CCN1CCN(C(c2ccc(OC)cc2)c2c(O)cc(C)n(Cc3ccco3)c2=O)CC1 (stereo unspecified),inactive: -7.71%
10,CCN(CC)c1nc2c(-c3cccc(Br)c3)nnn2c2ccccc12,inactive: 36.9%
11,COc1cccc(NC(=O)C2CCN(S(=O)(=O)c3cccc4nonc34)CC2)c1,inactive: -7.35%
12,COCCCn1c(=N)c(C(=O)NCC2CCCO2)cc2c(=O)n3cc(C)ccc3nc21 (stereo unspecified),inactive: 1.15%
13,Cc1ccc(Nc2c(-c3ccc(N(C)C)cc3)nc3nc[nH]n23)cc1,inactive: 70%
14,CC(=O)OCC(=O)[C@H]1CC[C@H]2[C@@H]3CCC4=CC(=O)CC[C@]4(C)[C@H]3CC[C@]12C,inactive: 4.75%
15,Cc1ccc2c(=O)cc(C(=O)Nc3ccc(S(=O)(=O)N4CCC(C)CC4)cc3)oc2c1C,inactive: 13%
16,O=C(Cc1ccccc1)Nc1sc2c(c1C(=O)Nc1ccccc1)CCCCC2,inactive: 0.0875%
17,COc1cc(C2CC(=O)Nc3c2c(C)nn3-c2nc(C)cc(C)n2)cc(OC)c1O (stereo unspecified),inactive: -3.79%
18,COc1cccc(-c2nn3c(=O)cc(CN4CCN(S(=O)(=O)c5ccc(C)cc5)CC4)nc3s2)c1,inactive: 1.53%
19,COc1ccc(-c2nc3ccccc3n3c(-c4cccc(C)c4)c4c(=O)n(C)c(=O)n(C)c4c23)cc1,inactive: -11.4%
20,CSc1nc(=O)c2c(n1C)NC(=O)CC2c1ccccc1OC(C)C (stereo unspecified),inactive: -10.4%
21,COc1cccc(-c2cn3c(n2)sc2cc(C(=O)NCCCc4ccccc4)ccc23)c1,inactive: -20.2%
22,CCc1ccc2c(c1)c(=O)c(S(=O)(=O)c1ccc(Cl)cc1)cn2CC,inactive: -39.1%
23,CCOc1ccc(CCNC(=O)CCCn2c(=O)c3cccn3c3cccnc32)cc1OCC,inactive: 10.1%
